Changes are numbered by the printed parent chain; changes in the protein carry UniProt numbers. This is one part of the list.
T1: RBFOX1 RRM (Homo sapiens, UniProt Q9NWB1 109-208)
T1 sequence: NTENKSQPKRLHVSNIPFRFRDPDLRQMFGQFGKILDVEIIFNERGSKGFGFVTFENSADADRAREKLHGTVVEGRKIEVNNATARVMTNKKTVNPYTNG

B1: CCCCUUG (DNA:RNA)
RNA: GGGAGACCGGAAUUCAGAUUGUCCCCCCUUGUUAAAUCCCGUCGUAGCCACCA
DNA 1: CAATCTGAATTCCGGTCTCCC
DNA 2: TGGTGGCTACGACGGGATT
B2: AUGCUGU (DNA:RNA)
RNA: B1 RNA with C25A, C26U, C27G, U30G, G31U
DNA 1: CAATCTGAATTCCGGTCTCCC
DNA 2: TGGTGGCTACGACGGGATT
B3: UAUACGG (DNA:RNA)
RNA: B1 RNA with C25U, C26A, C27U, C28A, U29C, U30G
DNA 1: CAATCTGAATTCCGGTCTCCC
DNA 2: TGGTGGCTACGACGGGATT
B4: ACCUAUG (DNA:RNA)
RNA: B1 RNA with C25A, C28U, U29A
DNA 1: CAATCTGAATTCCGGTCTCCC
DNA 2: TGGTGGCTACGACGGGATT
B5: AUCCUUA (DNA:RNA)
RNA: B1 RNA with C25A, C26U, G31A
DNA 1: CAATCTGAATTCCGGTCTCCC
DNA 2: TGGTGGCTACGACGGGATT
B6: ACGAAUC (DNA:RNA)
RNA: B1 RNA with C25A, C27G, C28A, U29A, G31C
DNA 1: CAATCTGAATTCCGGTCTCCC
DNA 2: TGGTGGCTACGACGGGATT
B7: AAGGGGC (DNA:RNA)
RNA: GGGAGACCGGAAUUCAGAUUGUCCAAGGGGCUUAAAUCCCGUCGUAGCCACCA
DNA 1: CAATCTGAATTCCGGTCTCCC
DNA 2: TGGTGGCTACGACGGGATT
B8: GGAUAAG (DNA:RNA)
RNA: B1 RNA with C25G, C26G, C27A, C28U, U29A, U30A
DNA 1: CAATCTGAATTCCGGTCTCCC
DNA 2: TGGTGGCTACGACGGGATT
B9: UCGUGAU (DNA:RNA)
RNA: B7 RNA with A25U, A26C, G28U, G30A, C31U
DNA 1: CAATCTGAATTCCGGTCTCCC
DNA 2: TGGTGGCTACGACGGGATT
B10: CGACUCA (DNA:RNA)
RNA: B1 RNA with C26G, C27A, U30C, G31A
DNA 1: CAATCTGAATTCCGGTCTCCC
DNA 2: TGGTGGCTACGACGGGATT
B11: CAGGGCC (DNA:RNA)
RNA: B7 RNA with A25C, G30C
DNA 1: CAATCTGAATTCCGGTCTCCC
DNA 2: TGGTGGCTACGACGGGATT
B12: AAUCCUA (DNA:RNA)
RNA: B7 RNA with G27U, G28C, G29C, G30U, C31A
DNA 1: CAATCTGAATTCCGGTCTCCC
DNA 2: TGGTGGCTACGACGGGATT
B13: GUUUUGU (DNA:RNA)
RNA: B7 RNA with A25G, A26U, G27U, G28U, G29U, C31U
DNA 1: CAATCTGAATTCCGGTCTCCC
DNA 2: TGGTGGCTACGACGGGATT
B14: CAAUUUG (DNA:RNA)
RNA: B1 RNA with C26A, C27A, C28U
DNA 1: CAATCTGAATTCCGGTCTCCC
DNA 2: TGGTGGCTACGACGGGATT
B15: AUACACG (DNA:RNA)
RNA: B1 RNA with C25A, C26U, C27A, U29A, U30C
DNA 1: CAATCTGAATTCCGGTCTCCC
DNA 2: TGGTGGCTACGACGGGATT
B16: UUGACGC (DNA:RNA)
RNA: B7 RNA with A25U, A26U, G28A, G29C
DNA 1: CAATCTGAATTCCGGTCTCCC
DNA 2: TGGTGGCTACGACGGGATT
B17: AAGAGUU (DNA:RNA)
RNA: B7 RNA with G28A, G30U, C31U
DNA 1: CAATCTGAATTCCGGTCTCCC
DNA 2: TGGTGGCTACGACGGGATT
B18: GUAAGGC (DNA:RNA)
RNA: B7 RNA with A25G, A26U, G27A, G28A
DNA 1: CAATCTGAATTCCGGTCTCCC
DNA 2: TGGTGGCTACGACGGGATT
B19: AUGUCGC (DNA:RNA)
RNA: B7 RNA with A26U, G28U, G29C
DNA 1: CAATCTGAATTCCGGTCTCCC
DNA 2: TGGTGGCTACGACGGGATT
B20: CCGCAUC (DNA:RNA)
RNA: B1 RNA with C27G, U29A, G31C
DNA 1: CAATCTGAATTCCGGTCTCCC
DNA 2: TGGTGGCTACGACGGGATT

The binders below were run against T1, RBFOX1 RRM (assay: EMSA; HiTS-Eq, 1 nM pool, 10 min; buffer printed only for the single-RNA assays: 10 mM Tris pH 7.5, 150 mM NaCl, 3.4 mM EDTA, 0.001% NP-40, 30 C). Conditions: tags: His6 N-terminal (pET28a); label: 5' 32P.
How it was run: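 A pool of RNA with 7 randomized nucleotides, 5′-radiolabelled and with DNA-annealed flanks, was equilibrated at 1 nM for 10 min in 50 µL with purified RbFox RRM, wild type or mutant, across increasing protein concentrations. Free RNA was separated by 8% native PAGE, excised, reverse-transcribed, barcoded by PCR and sequenced. Relative association constants were obtained from read-count changes of each RNA species versus the control reaction and normalised to the cognate motif.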
With B1 the binding signal was 0.00249 KA relative to UGCAUGU. With B2 the binding signal was 0.0118 KA relative to UGCAUGU. In the case of B3, the binding signal is reported as 0.00691 KA relative to UGCAUGU. For B4, the binding signal was 0.00417 KA relative to UGCAUGU. For B5, the binding signal was 0.000331 KA relative to UGCAUGU. In the case of B6, the binding signal is reported as 0.00464 KA relative to UGCAUGU. For B7, the binding signal was 0.0143 KA relative to UGCAUGU. With B8 the binding signal was 0.00929 KA relative to UGCAUGU. In the case of B9, the binding signal is reported as 0.00903 KA relative to UGCAUGU. B10 was tested, and the binding signal was 0.00407 KA relative to UGCAUGU. With B11 the binding signal was 0.0157 KA relative to UGCAUGU. With B12 the binding signal was 0.000556 KA relative to UGCAUGU. With B13 the binding signal was 0.0195 KA relative to UGCAUGU. B14 was tested, and the binding signal was 0.00892 KA relative to UGCAUGU. With B15 the binding signal was 0.00178 KA relative to UGCAUGU. With B16 the binding signal was 0.011 KA relative to UGCAUGU. For B17, the binding signal was 0.0092 KA relative to UGCAUGU. B18 was tested, and the binding signal was 0.00453 KA relative to UGCAUGU. In the case of B19, the binding signal is reported as 0.0121 KA relative to UGCAUGU. In the case of B20, the binding signal is reported as 0.0121 KA relative to UGCAUGU.
